Experimental data published in PubChem BioAssay AID504332 (National Center for Advancing Translational Sciences (NCATS), 2011).
Screen size: about 350,000 compounds; about 31,000 (8.9%) were called active. Inconclusive means that the source gave no clear call. Such entries were picked first, then a sample of the others. Calls follow the shape of the dose curve; as a rule, active = well fitted inhibition curve with a large enough effect; inconclusive = small, poorly fitted or top-dose-only effect; inactive = no such curve, though single readings can be large or run the other way. A potency beside an inconclusive call is a rough fit, not a confirmed value.

Target: Histone-lysine N-methyltransferase EHMT2 (Homo sapiens) (UniProt Q96KQ7)
Chain of UniProt Q96KQ7 (Q96KQ7 whole entry, looked up): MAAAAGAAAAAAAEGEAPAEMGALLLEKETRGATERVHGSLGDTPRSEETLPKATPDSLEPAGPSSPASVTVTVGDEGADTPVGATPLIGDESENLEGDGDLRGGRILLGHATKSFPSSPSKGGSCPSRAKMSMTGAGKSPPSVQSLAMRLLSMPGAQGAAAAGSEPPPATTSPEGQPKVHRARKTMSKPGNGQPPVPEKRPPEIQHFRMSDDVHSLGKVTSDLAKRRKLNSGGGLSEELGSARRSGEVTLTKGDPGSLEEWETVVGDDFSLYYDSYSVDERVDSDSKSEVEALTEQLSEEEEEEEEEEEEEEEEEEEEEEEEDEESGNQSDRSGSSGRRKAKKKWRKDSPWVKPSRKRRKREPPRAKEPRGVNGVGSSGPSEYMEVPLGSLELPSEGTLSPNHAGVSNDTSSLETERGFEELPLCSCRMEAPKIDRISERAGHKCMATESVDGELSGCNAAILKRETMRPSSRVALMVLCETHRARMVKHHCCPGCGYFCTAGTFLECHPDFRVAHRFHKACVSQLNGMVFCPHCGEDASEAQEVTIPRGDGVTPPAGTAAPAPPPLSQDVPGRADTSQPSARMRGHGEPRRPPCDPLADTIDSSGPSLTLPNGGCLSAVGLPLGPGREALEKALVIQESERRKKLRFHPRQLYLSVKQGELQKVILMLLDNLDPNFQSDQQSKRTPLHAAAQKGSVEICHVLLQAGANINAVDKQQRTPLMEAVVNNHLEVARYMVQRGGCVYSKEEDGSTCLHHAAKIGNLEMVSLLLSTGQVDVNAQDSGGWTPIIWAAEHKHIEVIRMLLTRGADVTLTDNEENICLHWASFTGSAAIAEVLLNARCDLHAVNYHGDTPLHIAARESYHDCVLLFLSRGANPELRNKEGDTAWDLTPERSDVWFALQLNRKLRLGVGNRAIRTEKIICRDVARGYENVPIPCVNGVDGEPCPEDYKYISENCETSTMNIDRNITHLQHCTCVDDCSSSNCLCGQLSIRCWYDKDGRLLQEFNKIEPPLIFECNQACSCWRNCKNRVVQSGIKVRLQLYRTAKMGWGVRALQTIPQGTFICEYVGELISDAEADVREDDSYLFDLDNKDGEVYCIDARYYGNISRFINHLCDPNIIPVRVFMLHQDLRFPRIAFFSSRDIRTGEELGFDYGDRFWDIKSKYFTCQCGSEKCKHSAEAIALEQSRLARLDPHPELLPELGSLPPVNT
Test: qHTS Assay for Inhibitors of Histone Lysine Methyltransferase G9a; also: nearly all actives have a fitted effect of over 75% in size
Conditions: G9a H3K9 monomethylation, AlphaScreen, 2 h
Summary of the method: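 AlphaScreen read-out: biotin-H3K9 peptide (500 nM) methylation by 20 nM enzyme with 20 uM SAM, 2 h at room temperature after 15 min compound preincubation; anti-monomethyl H3K9 antibody plus donor/acceptor beads, 10 min dark.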
Potency is read from the fitted curve at half-maximal effect; tags tell the direction and shape of the fitted curve.

Compound | Potency
COc1cccc(C(=O)NCCN2CCN(c3ccccc3)CC2)c1 | inconclusive: 89.1 µM [inhibitor, single point]
Cc1ccc(C)c(CN2C(=O)c3ccccc3S(=O)(=O)c3ccc(C(=O)N4CCCCCC4)cc32)c1 | inactive
Cc1ccc(N/C(SCc2ccccc2C)=C(/C#N)C(=O)NCc2ccco2)cc1C | inconclusive: 39.8 µM [inhibitor, partial curve, poor fit]
O=C(c1cncs1)N1CCCC(CNS(=O)(=O)c2cccs2)C1 (stereo unspecified) | inactive
CC(C)c1ccc(NC(=S)N2CCN(Cc3ccccc3)CC2)cc1 | inconclusive: 56.2 µM [inhibitor, partial curve, poor fit]
CCc1c(-c2ccccc2)nc2ccccc2c1C(=O)NCCc1ccccc1 | inactive
O=C(Nc1cccc(C(=O)O)c1)/C(=C\c1ccco1)NC(=O)c1ccccc1 | inconclusive: 100 µM [inhibitor, single point]
Cc1ccccc1OCC(=O)OCc1cc(=O)n2nc(C3CCCCC3)sc2n1 | inactive
O=C(CCCc1c[nH]c2ccccc12)NCCc1c[nH]c2ccccc12 | active: 44.7 µM
Cc1cc(=O)oc(C)c1C(=O)Nc1ccc2ncccc2c1 | inconclusive: 79.4 µM [inhibitor, single point]
COc1ccccc1NC(=O)COc1ccc(C(=O)OCC(=O)N(C(C)C)C(C)C)cc1OC | inconclusive: 89.1 µM [inhibitor, single point]
CCN(CC(=O)NC(=O)NC1CCCCC1)Cc1ccccc1 | inconclusive: 89.1 µM [inhibitor, single point]
CCc1ccc(NC(=O)CSc2nnc(Cc3cccn3C)n2-c2ccc(OC)cc2)cc1 | inconclusive: 0.891 µM [inhibitor, full curve, poor fit]
COc1cc(NS(=O)(=O)c2ccc(NC(C)=O)cc2)ncn1 | inconclusive: 89.1 µM [inhibitor, single point]
COc1ccc(C2C(O)C(c3c[nH]c4ccccc34)=NN2C(=O)CCl)cc1 (stereo unspecified) | inconclusive: 89.1 µM [inhibitor, partial curve]
O=C1Cc2ccccc2C(=O)N1c1cccc(Cl)c1 | active: 39.8 µM
O=C(NC(=S)Nc1cc([N+](=O)[O-])ccc1O)c1cccnc1 | active: 11.2 µM
CC(Sc1cccc[n+]1[O-])C(=O)Nc1ccc(Oc2ccccc2)cc1 (stereo unspecified) | active: 39.8 µM
Cc1nc(Nc2ccccc2Cl)sc1C(=O)Nc1ccccc1 | active: 28.2 µM
CC1=C(C(=O)c2ccccc2)C(c2ccc(O)cc2)NC(=S)N1 (stereo unspecified) | inconclusive: 44.7 µM [inhibitor, partial curve]
O=C(c1ccccc1)c1nc[nH]c1C(=O)Nc1ccccc1 | inconclusive: 89.1 µM [inhibitor, single point]
CC12CCC(C(=O)NCc3ccccc3Cl)(CC1=O)C2(C)C (stereo unspecified) | inconclusive: 79.4 µM [inhibitor, partial curve, poor fit]
COc1ccc(NC2CCCN(C(=O)c3ccc4[nH]c(C)c(C)c4c3)C2)cc1 (stereo unspecified) | active: 39.8 µM

Compound | Potency
C=CCOc1ccc(C2OC34CCCCC3C(C#N)(C#N)C2(C#N)C(=N)O4)cc1 (stereo unspecified) | inconclusive: 56.2 µM [inhibitor, partial curve, poor fit]
CCOC(=O)c1sc(NC(=O)OC)c(C(=O)OC)c1C | inactive
COC(=O)CSC1=C(C#N)C(=O)NC2(CCCCC2)S1 | inconclusive: 39.8 µM [inhibitor, single point]
Cc1ccc(C(=O)CC2(O)C(=O)N(CCc3ccccc3)c3ccc(Cl)cc32)cc1 (stereo unspecified) | inconclusive: 5.62 µM [inhibitor, partial curve, poor fit]
Cc1cc(Nc2cccc(C)c2C)n2cnnc2n1 | inconclusive: 25.1 µM [inhibitor, partial curve, poor fit]
CCCCc1ccc(N=N/C(C(=O)Nc2cc(OC)c(NC(C)=O)cc2OC)=C(/C)O)cc1 | inconclusive: 22.4 µM [inhibitor, single point]
O=C(CSc1nnc(COc2ccc(Cl)cc2)o1)NC1CCCCC1 | inconclusive: 89.1 µM [inhibitor, partial curve, poor fit]
COC(=O)c1c(-c2ccc(C)cc2)csc1N | active: 31.6 µM
CCCCCOC(=O)CSc1ncnc2c1sc1nc(N3CCOCC3)c3c(c12)CCCC3 | inactive
COCCCNC(=S)NCCCNc1nc2cc3c(cc2cc1C#N)OCO3 | inconclusive: 14.1 µM [inhibitor, partial curve]
COc1ccc(OCCCCn2c(-c3ccc(Cl)cc3)nc3ccccc3c2=O)cc1 | inactive
COc1ccccc1NC(=O)CCCN1C(=O)C2CC=CCC2C1=O (stereo unspecified) | inactive
CCc1ccc2ncc3c(-c4ccc(F)cc4)nn(CC(=O)NCc4ccccc4)c3c2c1 | inactive
O=C(/C=C/c1ccco1)NCc1ccccn1 | active: 35.5 µM
Cc1ccc(Cl)cc1N1CCN(C(=O)COc2ccc(S(=O)(=O)NC(C)C)cc2)CC1 | inconclusive: 89.1 µM [inhibitor, single point]
COc1ccc(C(c2nnnn2Cc2cccs2)N2CCN(c3ccc(F)cc3)CC2)cc1OC (stereo unspecified) | inconclusive: 50.1 µM [inhibitor, partial curve, poor fit]
Cc1ccc(C)c(-n2c(CCC(=O)O)ccc2-c2ccc(Cl)cc2)c1 | active: 12.6 µM
COc1ccc(C(=O)NC(=S)NNC(=O)c2ccc3ccccc3n2)cc1 | active: 12.6 µM
Cc1cccc(NC(=O)CSc2nc(-c3ccccc3)cn2-c2ccccc2)c1C | inconclusive: 11.2 µM [inhibitor, partial curve]
COc1cccc(CNC(=O)Cc2ccc(NC(=O)N3CCCCc4ccccc43)cc2)c1OC | inactive
COCC(C)n1c(C)cc(C(=O)COC(=O)/C=C/c2cccc(F)c2)c1C (stereo unspecified) | inconclusive: 31.6 µM [inhibitor, partial curve, poor fit]
COc1cccc(C(=O)NC(=S)Nc2ccc(N3CCCC3)cc2)c1 | active: 8.91 µM
Cc1ccc(-n2cccc2/C=C2\C(=N)N3N=C(C(C)C)SC3=NC2=O)cc1 | inconclusive: 31.6 µM [inhibitor, full curve]
